Measured values: the antibiotic and cytotoxicity screens of Wong et al. (2023)
This is one part of the list.

Tests used:
HSkMC = human skeletal muscle cells; assay: cytotoxicity call (relative viability < 0.9); details: 10 µM
S. aureus RN4220 = assay: growth inhibition call (relative growth <= 0.2); details: 50 µM

Row | Compound | cytotoxicity call (HSkMC) | growth inhibition call (S. aureus RN4220)
1 | C[C@@H](Oc1ccccc1)c1ccn[nH]1 | inactive | inactive
2 | Cc1cc(C)n(-c2nc(=O)cc(C)[nH]2)n1 | inactive | inactive
3 | CC(C)(C)[S@](=O)N1Cc2cc(C(=O)N[C@@H]3CCN(Cc4ccccc4)C3)nc(-c3cccc(-c4ccncc4)c3)c2[C@@H]1CCO | inactive | inactive
4 | Cc1ccc(S(=O)(=O)Nc2ccc3c(c2)C(=O)N([C@H](C)CO)C[C@@H](C)[C@@H](CN(C)Cc2ccc(Cl)c(Cl)c2)OCCCC[C@H](C)O3)cc1 | inactive | inactive
5 | C[C@@H]1CN([C@H](C)CO)C(=O)c2cc(NC(=O)Nc3ccccc3)ccc2O[C@@H](C)CCCCO[C@@H]1CN(C)C(=O)NC1CCCCC1 | inactive | inactive
6 | C[C@H](CO)N1C[C@H](C)[C@H](CN(C)S(=O)(=O)c2cn(C)cn2)Oc2ccc(NC(=O)Cc3cn(C)c4ccccc34)cc2CC1=O | inactive | inactive
7 | CN(Cc1ccc(C(C)(C)C)cc1)Cc1cccc2ccccc12 | inactive | inactive
8 | C[C@H](CO)N1C[C@H](C)[C@@H](CN(C)S(=O)(=O)c2ccccc2)Oc2c(NC(=O)C3CC3)cccc2C1=O | inactive | inactive
9 | C[C@@H]1CCCCO[C@@H](CN(C)Cc2ccc3c(c2)OCO3)[C@@H](C)CN([C@H](C)CO)C(=O)c2cc(NC(=O)Nc3ccc(F)cc3)ccc2O1 | inactive | inactive
10 | Cc1ccc(S(=O)(=O)N(C)C[C@@H]2Oc3ccc(NS(C)(=O)=O)cc3C(=O)N([C@H](C)CO)C[C@@H]2C)cc1 | inactive | inactive
11 | CC(C)CC#Cc1ccc2c(c1)O[C@@H](CN(C)S(=O)(=O)c1ccc(F)cc1)[C@@H](C)CN([C@H](C)CO)S2(=O)=O | inactive | inactive
12 | CCCN(C)C[C@H]1OCCCC[C@@H](C)Oc2ccc(NC(=O)Nc3ccc(F)cc3)cc2C(=O)N([C@H](C)CO)C[C@@H]1C | inactive | inactive
13 | COc1cccc(S(=O)(=O)N2C[C@@H](O)COC[C@@H]3O[C@H](CC(=O)NCCCN4CCOCC4)CC[C@H]32)c1 | inactive | inactive
14 | Cc1ccc(S(=O)(=O)N(C)C[C@@H]2OCCCC[C@@H](C)Oc3ccc(NC(=O)NC4CCCCC4)cc3C(=O)N([C@H](C)CO)C[C@H]2C)cc1 | inactive | inactive
15 | C[C@H](CO)N1C[C@H](C)[C@H](CN(C)C(=O)Cc2ccccc2)OCCCC[C@H](C)Oc2ccc(NS(=O)(=O)c3ccc(Cl)cc3)cc2C1=O | inactive | inactive
16 | C[C@H](CO)N1C[C@H](C)[C@H](CN(C)S(=O)(=O)c2ccc(F)cc2)OCCCC[C@H](C)Oc2ccc(NS(=O)(=O)c3cn(C)cn3)cc2C1=O | inactive | inactive
17 | Cc1noc(C)c1NC(=O)N(C)C[C@H]1OCCCC[C@H](C)Oc2ccc(NC(=O)Nc3cccc4ccccc34)cc2C(=O)N([C@H](C)CO)C[C@@H]1C | inactive | inactive
18 | C[C@H](CO)N1C[C@H](C)[C@H](CN(C)C(=O)Nc2ccccc2)Oc2ccc(NC(=O)CCN3CCOCC3)cc2CC1=O | inactive | inactive
19 | O=C(C[C@H]1C[C@@H]2c3cc(NS(=O)(=O)c4ccc(F)cc4)ccc3O[C@@H]2[C@H](CO)O1)NCc1ccccc1 | inactive | inactive

Row | Compound | cytotoxicity call (HSkMC) | growth inhibition call (S. aureus RN4220)
20 | C[C@@H]1CCCCO[C@H](CN(C)Cc2ccccc2)[C@H](C)CN([C@@H](C)CO)C(=O)c2cc(NC(=O)CCC(F)(F)F)ccc2O1 | inactive | inactive
21 | COc1cc(C(=O)OCCCN2CCN(CCCOC(=O)c3cc(OC)c(OC)c(OC)c3)CC2)cc(OC)c1OC | inactive | inactive
22 | C[C@@H]1CCCCO[C@H](CN(C)C(=O)C2CCCCC2)[C@@H](C)CN([C@H](C)CO)C(=O)c2cc(NC(=O)c3ccccc3)ccc2O1 | inactive | inactive
23 | C[C@@H]1CN([C@@H](C)CO)C(=O)c2cccc(NC(=O)Nc3cccc4ccccc34)c2O[C@@H]1CN(C)S(=O)(=O)c1cccs1 | inactive | inactive
24 | C[C@@H]1CCCCO[C@@H](CN(C)C(=O)Nc2cccc3ccccc23)[C@@H](C)CN([C@H](C)CO)C(=O)c2cc(NC(=O)C3CCCCC3)ccc2O1 | active | inactive
25 | O=C(C[C@H]1CC[C@H]2[C@@H](COC[C@@H](O)CN2S(=O)(=O)c2ccccc2)O1)NCc1ccc2c(c1)OCO2 | inactive | inactive
26 | COc1ccc(NC(=O)Nc2ccc3c(c2)C(=O)N([C@H](C)CO)C[C@@H](C)[C@@H](CN(C)Cc2ccc(C(F)(F)F)cc2)O3)cc1 | inactive | inactive
27 | COc1ccc(CN(C)C[C@H]2OCCCC[C@H](C)Oc3ccc(NS(=O)(=O)c4ccccc4)cc3C(=O)N([C@H](C)CO)C[C@H]2C)cc1 | inactive | inactive
28 | C[C@@H]1CN([C@H](C)CO)C(=O)c2cc(NC(=O)C3CCCCC3)ccc2O[C@@H](C)CCCCO[C@H]1CN(C)C(=O)c1ccncc1 | inactive | inactive
29 | C[C@H]1CC=CC[C@H](c2cccc(Cl)c2)NC(=O)[C@H](Cc2ccccc2)N(C)C(=O)c2ccccc2O1 | inactive | inactive
30 | COc1ccc(NC(=O)Nc2cccc3c2O[C@H](CN(C)Cc2ccc(C(F)(F)F)cc2)[C@H](C)CN([C@@H](C)CO)C3=O)cc1 | inactive | inactive
31 | COc1ccc(S(=O)(=O)N[C@H]2CC[C@@H](CC(=O)N3CCN(c4ccccc4)CC3)O[C@H]2CO)cc1 | inactive | inactive
32 | O=C1NCCC[C@@H]1C(=O)N1CCCCC1 | inactive | inactive
33 | C[C@@H]1CN([C@@H](C)CO)C(=O)c2cccc(NS(=O)(=O)c3cccs3)c2O[C@H]1CN(C)S(=O)(=O)c1ccccc1 | inactive | inactive
34 | CCS(=O)(=O)N1[C@H](CO)[C@H](c2ccccc2)C12CN(C(=O)CN(C)C)C2 | inactive | inactive
35 | COc1ccc(S(=O)(=O)Nc2ccc3c(c2)C(=O)N([C@H](C)CO)C[C@@H](C)[C@H](CN(C)C(=O)C2CCCCC2)OCCCC[C@H](C)O3)cc1 | inactive | inactive
36 | CC(C)c1nc(CN(C)C(=O)N[C@@H](CCN2CCOCC2)C(=O)N[C@H](CC[C@H](Cc2ccccc2)NC(=O)OCc2cncs2)Cc2ccccc2)cs1 | inactive | inactive
37 | COc1ccccc1-c1cccc(-c2nc(C(=O)N3CCCCC3)cc3c2[C@@H](CCO)N([S@](=O)C(C)(C)C)C3)c1 | inactive | inactive
38 | COCCOC(=O)N1C(=O)[C@@]2(c3cc(C#Cc4ccc(OC)cc4)ccc31)[C@H](c1ccccc1OCCO)N1[C@H](c3ccccc3)[C@H](c3ccccc3)OC(=O)[C@H]1[C@@H]2C(=O)NC[C@H](O)c1ccccc1 | inactive | inactive

Row | Compound | cytotoxicity call (HSkMC) | growth inhibition call (S. aureus RN4220)
39 | C[C@H]1CN([C@@H](C)CO)C(=O)c2cccc(NC(=O)NC3CCCCC3)c2O[C@H]1CN(C)Cc1ccc(C(=O)Nc2ccccc2N)cc1 | inactive | inactive
40 | CO[C@H](CN(C)S(=O)(=O)c1cn(C)cn1)[C@H](C)CN(C(=O)Nc1ccc(C(F)(F)F)cc1)[C@@H](C)CO | inactive | active
41 | C[C@@H]1CCCCO[C@@H](CN(C)CC2CCCCC2)[C@H](C)CN([C@@H](C)CO)C(=O)c2cc(NC(=O)c3ccccc3)ccc2O1 | inactive | inactive
42 | COc1ccc(CNC(=O)C[C@H]2C[C@H]3c4cc(NS(=O)(=O)c5ccc(F)cc5)ccc4O[C@H]3[C@H](CO)O2)cc1 | inactive | inactive
43 | CC(C)CC#Cc1ccc2c(c1)O[C@@H](CN(C)Cc1cncnc1)[C@@H](C)CN([C@H](C)CO)S2(=O)=O | inactive | inactive
44 | C[C@@H]1CN([C@H](C)CO)C(=O)c2cccc(NS(=O)(=O)c3cn(C)cn3)c2O[C@@H]1CN(C)C(=O)Nc1ccc(F)cc1 | inactive | inactive
45 | C[C@@H]1CN([C@@H](C)CO)C(=O)c2cc(NC(=O)Nc3ccccc3)ccc2O[C@@H](C)CCCCO[C@@H]1CN(C)C(=O)NC1CCCCC1 | inactive | inactive
46 | C[C@H]1CN([C@@H](C)CO)C(=O)c2cc(C#Cc3cccnc3)cnc2O[C@@H]1CN(C)Cc1ccc(F)cc1 | inactive | inactive
47 | C[C@@H]1CN([C@H](C)CO)C(=O)c2c(c3ccccc3n2C)-c2ccccc2CO[C@H]1CN(C)C(=O)[C@H](C)c1ccccc1 | inactive | inactive
48 | COc1cc(C=CC(=O)O)cc(OC)c1O | inactive | inactive
49 | CO[C@H]1O[C@H](COC(=O)NCCCCCC(=O)NO)[C@H](OC(=O)Nc2ccccc2)[C@H](OC(=O)Nc2ccccc2)[C@H]1OC(=O)Nc1ccccc1 | inactive | inactive
50 | C[C@@H]1CN([C@H](C)CO)C(=O)c2cc(NC(=O)Nc3ccc4c(c3)OCO4)ccc2O[C@@H]1CN(C)Cc1ccc(Cl)c(Cl)c1 | inactive | inactive
51 | C[C@H](CO)N1C[C@H](C)[C@@H](CN(C)Cc2ccc(Oc3ccccc3)cc2)Oc2ccc(NC(=O)CCCN(C)C)cc2C1=O | inactive | inactive
52 | COC(=O)CCCCCCC(=O)Nc1ccc([C@H]2O[C@H](CSc3nc(-c4ccccc4)c(-c4ccccc4)o3)C[C@H](c3ccc(NC(=O)CCCCCCC(=O)OC)cc3)O2)cc1 | inactive | inactive
53 | C[C@@H]1CCCCO[C@@H](CN(C)S(=O)(=O)c2cccs2)[C@@H](C)CN([C@@H](C)CO)C(=O)c2cc(NC(=O)NC3CCCCC3)ccc2O1 | inactive | inactive
54 | CCCNC(=O)N[C@H]1CC[C@H](CC(=O)N2CCN(C)CC2)O[C@H]1CO | inactive | inactive
55 | CC(C)NC(=O)Nc1ccc2c(c1)C(=O)N([C@H](C)CO)C[C@@H](C)[C@@H](CN(C)S(=O)(=O)c1ccc(Cl)cc1)O2 | inactive | inactive
56 | C[C@@H]1CCCCO[C@@H](CN(C)Cc2ccc(C(F)(F)F)cc2)[C@H](C)CN([C@H](C)CO)C(=O)c2cc(N(C)C)ccc2O1 | inactive | inactive
